From the RNAGym collection of RNA variant scans (doi:10.7554/elife.90254) come the findings set out here.

B1: LINE1-full (parent)
chain: UACGUAGGUGGUUUUCCCCUGAUAGUGCUAAGGGGGCCUGGAAGUUUGGACUGGGCAGAGCUCAACACAGCGUGGCAAAGUGGCUGUGGCUAGACUGCCUCUCUGGAUUCCUCGUCACUCAGCAGGGCAUCUCUGAGAGAAAUGCC

The source gives no read counts; variants with many changes may rest on few reads.

The variants in this data set derive from B1. Nature of the data set: self-cleavage, relative activity (ratio to wild type); higher = more cleavage; in vitro, sequencing; the parent is a self-cleaving ribozyme.
As for U12G U15C U87G A94C G125A U132C U134C, the self-cleavage came to 0.

In the case of A6U U9G C101G, the self-cleavage came to 0.37.

On to U1A U46C U62C U81A, for which the self-cleavage was 0.12.

For A6G U14C U73C, the self-cleavage is 0.66.

Turning to U15C A64G U73A A79G A140C, the self-cleavage amounted to 0.64.

On to A57G G86A U108C A121C A140G, for which the self-cleavage was 0.07.

Regarding A2G U23A A30U C84A, the self-cleavage was 0.34.

U12C U15C U20A U132C: the self-cleavage worked out at 1.7.

As for A2U U13C G74A C101A A141G A142G, the self-cleavage stood at 0.69.

Regarding A77U U96C U108C, the self-cleavage stood at 0.19.

Take A50C A59G U108C: the self-cleavage is 0.

For A67G G93A A129U A138G, the self-cleavage came out at 0.02.

U12G G25A A42G U100C: the self-cleavage was 0.56.

For the variant A57G G88A G114A U130C, the self-cleavage was 0.03.

Turning to U102C G105A C133A A136G A138G, the self-cleavage came out at 1.36.

U26G U81A U100A: the self-cleavage came to 2.09.

On to U5C U47G U87C, for which the self-cleavage is 0.

U14C U26A U52C C98U: the self-cleavage was determined as 0.19.

Consider A2G A78G G80U, for which the self-cleavage worked out at 0.38.

On to G55U A69U A138G, for which the self-cleavage was 0.07.

For U52C U62A U115C, the self-cleavage worked out at 0.08.

Turning to A65G U73C A78U, the self-cleavage is 0.

As for A30G A59G C84A U85G, the self-cleavage was 0.

Take U15C A31U A64G U115C: the self-cleavage amounted to 0.

In the case of U12C A22U G27A U52C U102A, the self-cleavage was 1.37.

For the variant G11A G74C U100A, the self-cleavage worked out at 0.59.

For G11U U15C A92G C95A A140G, the self-cleavage was 0.03.

Take A2G U91C U96C U134C: the self-cleavage turned out to be 0.

Turning to A77U G97A U100C U130A, the self-cleavage came to 0.14.

For the variant U12A A42G U109A G122U G139A, the self-cleavage was 0.77.

Take U96C U109C C123U: the self-cleavage was found to be 0.12.

As for U23C U73C U134C, the self-cleavage was 2.55.

As to U9G U47C C131U, the self-cleavage amounted to 1.05.

As for U62C A77U G83U A121G A129G A141G, the self-cleavage came to 0.02.

As to G11C A69G G72A, the self-cleavage stood at 0.44.

For U9C A67G U112C, the self-cleavage came out at 0.71.

In the case of U15C A78G U96C, the self-cleavage is 0.

A69U A79G U143C: the self-cleavage came to 0.09.

U12C U14C A59G A92U A129G U132A: the self-cleavage is 0.46.

In the case of U14C U39C U102C A117G U119A, the self-cleavage was found to be 0.

On to U13C U23C A50G G74U U81C A117G, for which the self-cleavage amounted to 0.

As to U1C U9C A78G, the self-cleavage was determined as 0.48.

Turning to G53U U62C C131U, the self-cleavage was found to be 0.05.

With U14C U46C A129G A140G, the self-cleavage worked out at 1.06.

Regarding A31G U62C U81C, the self-cleavage came to 0.3.

Turning to U13C A65C A94U, the self-cleavage turned out to be 0.05.

As to U85A G93U A129G, the self-cleavage was 0.05.

For the variant U12C U14C A50U U73A, the self-cleavage was determined as 0.25.

With U13A U85C A140G, the self-cleavage worked out at 0.2.

A30U U62C U130C: the self-cleavage was 0.06.

For U20C A42U U45C A67G G72A U134C A142G, the self-cleavage is 0.84.

With U47C A79G U87A A140G A141G, the self-cleavage was 0.09.

In the case of A31U U87A U96A A124G, the self-cleavage was 0.05.

Take A30G U47C U100A: the self-cleavage is 2.04.

Take G53A A79G U87C: the self-cleavage was found to be 0.18.

As to A69G U87A A94U, the self-cleavage turned out to be 0.02.

U14A A43U U96A: the self-cleavage was 0.05.

As for G70C C84G C101A, the self-cleavage was 1.23.

Consider A65G U91A G105U, for which the self-cleavage was 0.02.

As for U47G U62A G89A, the self-cleavage was found to be 0.03.

Take U47C A94U U112C: the self-cleavage turned out to be 0.52.

Consider A65G U109C U115C U119A, for which the self-cleavage was 0.

Turning to A57G U130C A138U, the self-cleavage worked out at 1.41.

Consider U26C U119A A124G, for which the self-cleavage was 0.84.

In the case of U5C U23A A43U U104A A129U, the self-cleavage is 1.41.

As to U12G U13C U14C A22G G89A, the self-cleavage was 0.

For the variant U15A A43U U45A, the self-cleavage was determined as 0.22.

On to U46C C56U A65G A79G U130C, for which the self-cleavage came to 0.03.

A6G U45A U62C A65G U115A U143C: the self-cleavage came out at 0.14.

G7U U9C U47A G127A: the self-cleavage was determined as 2.14.

As for U12C U87C U108C, the self-cleavage was found to be 0.5.

In the case of U14C A64G U112C, the self-cleavage amounted to 0.5.

U20C G25A A92G A121G U143A: the self-cleavage was found to be 0.

As for U20C A78G U143A, the self-cleavage came to 1.6.

Consider A2G A78U U134A, for which the self-cleavage worked out at 0.4.

Take U46C A50G G114C: the self-cleavage was found to be 2.12.

Take C17U A65U A140G A142G: the self-cleavage was determined as 0.2.

For the variant A24C G32A A43G U47A U96C A124U, the self-cleavage came to 0.13.

Regarding U73A U81C U87A, the self-cleavage came to 0.03.

As to U62C C120A A136U, the self-cleavage came to 0.06.

Regarding C56U U109C U115C A121G U134C, the self-cleavage worked out at 0.

Turning to U81C U85C U100C, the self-cleavage was 0.

As to U14C A31U A117G A138G, the self-cleavage was found to be 0.66.

Regarding A69G G106A A117U, the self-cleavage came out at 0.39.

As to U20A U23C U45A U104G, the self-cleavage is 0.93.

Regarding U46C A107G U108C, the self-cleavage stood at 0.

Consider U87G C98A A138G, for which the self-cleavage was 0.03.

For the variant U73A G86A U87A, the self-cleavage stood at 0.08.

Turning to A24C A69U U100A U104A A142G U143A, the self-cleavage is 0.

In the case of A59U C95U A140G, the self-cleavage was determined as 0.11.

On to A22G U143G C146U, for which the self-cleavage came to 1.33.

For A77U U85A U102C, the self-cleavage was 0.19.

In the case of A78U C103U A136G A141G, the self-cleavage came out at 1.48.

For the variant U26G A43G A59U U62A A77G A138G A140U, the self-cleavage was 0.14.

Turning to U26A A57G A67U U81C C98G A117C, the self-cleavage was determined as 0.

As to C63U A69G A117G, the self-cleavage amounted to 0.11.

Turning to G33A U46C A65G U130C, the self-cleavage amounted to 0.1.

On to U29A U39C U102C, for which the self-cleavage worked out at 1.05.

Regarding U15C U26A A31U G36U U47C, the self-cleavage was found to be 0.95.

A6G U13C U23C C66U A67G: the self-cleavage amounted to 0.36.

For U15C U104C U115A, the self-cleavage turned out to be 2.3.

On to U62C G72A U85G C120A, for which the self-cleavage was 0.

As for U46C U81A A138G, the self-cleavage came to 3.

U47C A78G A117U: the self-cleavage was determined as 0.94.

In the case of U9C C71U U96C, the self-cleavage came out at 0.08.

As for U1C U62C A69U U81A A92U U100C A141G, the self-cleavage came to 0.

On to U1C A22G A64G, for which the self-cleavage is 0.22.

With U12G U52C A69C, the self-cleavage came to 0.68.

With G35C U45C A67G, the self-cleavage is 0.68.

For the variant U20C G32A U104A, the self-cleavage turned out to be 0.64.

For U62C U81C G89A U143C, the self-cleavage came out at 0.

Consider C51A A59U A117U, for which the self-cleavage came to 0.48.

On to U47A U91C A94G C120A, for which the self-cleavage came to 0.11.

For U20A A22G A43G A50G, the self-cleavage was determined as 0.

On to U1C U15C U26C U115C U119C, for which the self-cleavage came to 0.

In the case of U47A G72U A94U, the self-cleavage is 0.18.

As for A31U C37G U100A, the self-cleavage worked out at 0.95.

For the variant U29A A65G G106U, the self-cleavage was found to be 0.1.

Turning to U39C U47G A77U U108C C128U, the self-cleavage stood at 1.46.

Consider A6G U45A A67U U112C, for which the self-cleavage was determined as 0.36.

As for U14A U62C A141U, the self-cleavage amounted to 0.24.

Regarding A2G A50U G86U U115C, the self-cleavage was 0.11.

As to U52A A78G A121C, the self-cleavage turned out to be 1.15.

U13C G126A A140U: the self-cleavage was 1.59.

For U20C U100A A124G, the self-cleavage was 0.

For the variant U9A U20A A79G A94G, the self-cleavage came to 0.38.

For the variant A6G A59G C76U U100C, the self-cleavage is 0.32.

As for U12C U96C U100C G106A A107G, the self-cleavage turned out to be 0.

U15C U23A G41A A64G: the self-cleavage came out at 0.3.

Regarding U9A U39C U119C, the self-cleavage stood at 1.53.

Take A22G A57U A79G U91C U108C: the self-cleavage was 0.

For the variant U9A U104A A138U, the self-cleavage is 0.63.

As for A22G G49A C68U A78G, the self-cleavage stood at 0.06.

In the case of A65U A78G A79G A138C, the self-cleavage is 0.12.

Regarding A67U A69C A94G A142G, the self-cleavage is 0.

As for U87C U115A C133U, the self-cleavage turned out to be 0.28.

With A2G C76U U85A A94G, the self-cleavage amounted to 0.07.

Regarding U26A U119C A142G, the self-cleavage came out at 0.

As to G93U U102C U108C, the self-cleavage stood at 0.06.

For the variant U91C U100C U143C, the self-cleavage worked out at 0.

U14A C28A G144U: the self-cleavage was 0.72.

As to A22U U87A A140U, the self-cleavage worked out at 0.07.

Take U13C U14C U20C A94U C128A: the self-cleavage came out at 0.

Take U23C A77G A142G: the self-cleavage stood at 2.69.

With U13G A78G G89C, the self-cleavage is 0.12.

Regarding U26C A31G G36A A64G U132C, the self-cleavage is 0.2.

For the variant U96A U108A U134C, the self-cleavage is 0.18.

For U13C U52C A136U, the self-cleavage worked out at 1.67.

With A64U A65G A78G G105A U134C, the self-cleavage was 0.01.

C18U C51U A59G U109C: the self-cleavage amounted to 0.08.

Turning to U12A C99U A124U, the self-cleavage turned out to be 0.81.

For the variant U15C U47A U112C, the self-cleavage was found to be 0.94.

Regarding U9C A31G U87G, the self-cleavage is 0.71.

With U23C U29C A94G, the self-cleavage was 0.

C17U U45C U85C A117G U119A: the self-cleavage worked out at 0.92.

For the variant A6G U115C G122A A124G A140G, the self-cleavage came to 0.88.

On to U13C A50C G82A, for which the self-cleavage was 1.6.

With A67G A124G G137A, the self-cleavage amounted to 0.34.

On to U26C U85C C131U U134A, for which the self-cleavage worked out at 0.02.

Regarding U9C A43G A107U C146A, the self-cleavage stood at 1.51.

Take U9A U15C U96C C131U U143C: the self-cleavage was 0.57.

In the case of U9C A22G U47C A65G, the self-cleavage is 0.

For C98A U134C A141G, the self-cleavage was found to be 0.1.

Consider G49A A79G U100C, for which the self-cleavage was determined as 1.23.

For the variant A57G C71G A78U U81C A142G, the self-cleavage came out at 0.08.

As for U39A U62A U73A G88A A140U, the self-cleavage was determined as 0.02.

As to U13C A67G A142G U143A, the self-cleavage is 0.9.
